Reference: PubChem BioAssay AID485344 (National Center for Advancing Translational Sciences (NCATS), 2010)
Hit rate of the full screen: of about 340,000 compounds, about 6,900 (2%) were called active. Rule as the data show it: active = inhibition above about 30%; inactive = below that, where a call was filed. The list shows a part of the results, in another mix than the full data. Where no call is shown, the source filed none.

Each compound was assayed against D(2) dopamine receptor (Homo sapiens) (UniProt P14416) (assay: HTS Assay for Allosteric Antagonists of the Human D2 Dopamine Receptor: Primary Screen for Antagonists). Details: HEK293 TREx D2 cells, calcium flux, dopamine EC80; at 10 µM; stronger effect = higher value.
Procedure, shortened: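 In this primary screen, negative modulation is detected by tracking calcium flux after an EC80 dopamine challenge in inducible HEK293 T-REx D2 cells preexposed to test compound for 180 s.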
Also: 0% is about no effect.

Sequence of UniProt P14416 (P14416 whole entry, looked up): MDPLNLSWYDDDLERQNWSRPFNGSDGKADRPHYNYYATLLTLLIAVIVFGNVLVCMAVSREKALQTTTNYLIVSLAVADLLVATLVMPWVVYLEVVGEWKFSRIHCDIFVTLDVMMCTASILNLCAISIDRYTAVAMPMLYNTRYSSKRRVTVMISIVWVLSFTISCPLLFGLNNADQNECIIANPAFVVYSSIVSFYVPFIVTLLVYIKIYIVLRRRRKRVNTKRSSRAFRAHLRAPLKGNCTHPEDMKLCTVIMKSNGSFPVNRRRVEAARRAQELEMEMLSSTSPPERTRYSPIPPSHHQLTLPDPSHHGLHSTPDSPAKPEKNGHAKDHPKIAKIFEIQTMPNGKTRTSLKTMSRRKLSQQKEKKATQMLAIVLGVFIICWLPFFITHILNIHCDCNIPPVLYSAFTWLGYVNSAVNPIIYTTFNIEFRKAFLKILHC

Question: With CCOC(=O)N1CCc2c(sc3c2c(=O)n(CCc2ccccc2)c(=O)n3Cc2cc(C)ccc2C)C1 as the compound, how does the inhibition read?
Answer: Its inhibition is -8.95%.

Question: With O=C(Nc1cc(C(F)(F)F)ccc1Cl)C1CCN(c2nnc(-n3cccc3)s2)CC1 as the compound, how does the inhibition read?
Answer: Its inhibition is active: 62.3%.

Question: Which inhibition does the source give for COc1ccc(OC)c(Nc2nc(-c3ccc(C)cc3)nc3ccccc23)c1 here?
Answer: The inhibition was -3.46%.

Question: O=C(CC1N=C2c3ccccc3N=C(SCc3ccc(Cl)cc3)N2C1=O)NCCc1ccccc1 (stereo not given) was tested. Which inhibition did it give?
Answer: The inhibition was 15.2%.

Question: Which inhibition does the source give for O=C(CSc1nnc(NC(=O)NC2CCCCC2)s1)Nc1ccccc1F here?
Answer: The inhibition was -7.65%.

Question: How did the inhibition turn out when CCOC(=O)c1c(C)[nH]c(C)c1S(=O)(=O)NCC(=O)Nc1cccc(C(F)(F)F)c1 was run?
Answer: Its inhibition is -12.7%.

Question: For CCOc1ccc(C2c3c(-c4ccc(C)cc4)n[nH]c3C(=O)N2c2ccc(Cl)cc2)cc1 (stereo not given), which inhibition is on record?
Answer: Its inhibition is 7.16%.

Question: With CC1CCCN(C(=O)Cn2c(=O)oc3cc(S(=O)(=O)N4CCCCC4)ccc32)C1 (stereo not given) as the compound, how does the inhibition read?
Answer: Its inhibition is 10.4%.

Question: Which inhibition does the source give for O=C(Nc1ccc(-c2cc(C(F)(F)F)nn2-c2ccccc2)cc1)c1cccc(F)c1 here?
Answer: Its inhibition is -2.56%.

Question: For CCOC(=O)c1c(NC(=O)c2cc(CC)on2)sc(C)c1C, which inhibition is on record?
Answer: Its inhibition is -7.47%.

Question: CCN(CC)c1ccc(C(=O)NCc2ccc3c(c2)CCN3C(=O)c2ccccc2)cc1 was tested. Which inhibition did it give?
Answer: Its inhibition is -12.9%.

Question: How did the inhibition turn out when CCN1CCC(N(Cc2cccc(OC)c2)C(=O)Nc2cccc(C(F)(F)F)c2)CC1 was run?
Answer: Its inhibition is -14.3%.

Question: For Brc1ccccc1-n1ncc2c1ncn1nc(Cc3ccccc3)nc21, which inhibition is on record?
Answer: Its inhibition is 17%.

Question: How did the inhibition turn out when O=c1cc(CSc2ncn[nH]2)[nH]c2c(Cl)cccc12 was run?
Answer: The inhibition was -2.27%.

Question: How did the inhibition turn out when Cc1ccc2c(c1)N(C(=O)CCC(=O)Nc1ccccc1Cl)CC(C)O2 (stereo not given) was run?
Answer: Its inhibition is 2.21%.

Question: COc1ccc(CNC(=O)CN(c2ccc(C)cc2)S(=O)(=O)c2c(C)n[nH]c2C)cc1 was tested. Which inhibition did it give?
Answer: Its inhibition is 4.55%.

Question: With COc1ccc2oc(=O)c(-c3csc(/C(C#N)=C/c4ccc(F)cc4)n3)cc2c1 as the compound, how does the inhibition read?
Answer: Its inhibition is -3.58%.

Question: With COc1ccc(CNC(=O)c2cc3c(-c4ccccc4F)nn(C)c3s2)c(OC)c1 as the compound, how does the inhibition read?
Answer: Its inhibition is 3.76%.

Question: With COc1ccccc1N1CCN(C(=O)C2CCN(S(=O)(=O)c3cnc[nH]3)CC2)CC1 as the compound, how does the inhibition read?
Answer: The inhibition was -9.65%.

Question: CCOc1ccc(NC(=O)Cn2c(=O)n(-c3ccc(C)cc3)c(=O)c3cc(OC)c(OC)cc32)cc1 was tested. Which inhibition did it give?
Answer: Its inhibition is 1.93%.

Question: How did the inhibition turn out when Cc1ccc(/C=C(\C#N)C(=O)Nc2cc(C)ccc2C)cc1 was run?
Answer: Its inhibition is 20.8%.

Question: COc1cccc(NC(=O)Cn2cc(C(=O)C3CCCCC3)c3ccccc32)c1 was tested. Which inhibition did it give?
Answer: Its inhibition is 13%.

Question: Which inhibition does the source give for CCOC(=O)c1c(NC(C)=O)c2c3c(sc2n1Cc1nc(-c2ccccc2OCC)oc1C)CCCC3 here?
Answer: The inhibition was -1.08%.

Question: Which inhibition does the source give for COc1cccc(CNC(=O)CN2C(=O)N(c3cc(C)ccc3C)S(=O)(=O)c3ccccc32)c1OC here?
Answer: Its inhibition is 12.9%.

Question: How did the inhibition turn out when Cc1ccc(C)c(CN2C(=O)c3ccccc3S(=O)c3ccc(C(=O)NCc4ccccc4Cl)cc32)c1 (stereo not given) was run?
Answer: The inhibition was 0.375%.

Question: With COc1cc(C)c(Cl)cc1S(=O)(=O)NCCc1c(C)[nH]c2ccccc12 as the compound, how does the inhibition read?
Answer: Its inhibition is -6.19%.

Question: How did the inhibition turn out when Cc1cccc(NC(=O)NCCn2c(=O)oc3ccc(C)cc32)c1 was run?
Answer: The inhibition was -12.5%.

Question: Which inhibition does the source give for COc1cccc(NC(=O)c2sc3nc(N4CCOCC4)c4c(c3c2N)CC(C)(C)OC4)c1 here?
Answer: The inhibition was -12.5%.

Question: Which inhibition does the source give for Cc1oc2c(c1C(=O)NCc1cccc(Br)c1)C1=NCCN1C=N2 here?
Answer: The inhibition was -18.5%.

Question: Which inhibition does the source give for COc1ccccc1/C=C/C(=O)NCC(=O)N/N=C/c1cc(Br)ccc1OC here?
Answer: Its inhibition is active: 64.2%.

Question: For CCOC(=O)Cn1c(=O)n(CC2CCCO2)c2nc(-c3ccc(OC)cc3OC)nc(C(N)=O)c21 (stereo not given), which inhibition is on record?
Answer: The inhibition was -9.97%.

Question: With Cc1ccc(CNC(=O)CCCn2c(=O)c3ccccc3n(CC(=O)C(C)(C)C)c2=O)cc1 as the compound, how does the inhibition read?
Answer: The inhibition was 6.74%.

Question: Which inhibition does the source give for Cc1nnc(N2CCN(C(=O)Nc3cc(F)ccc3F)CC2)c2nn(-c3ccc(Cl)cc3)c(C)c12 here?
Answer: Its inhibition is -1.14%.

Question: For CC(=O)Nc1ccc(NCc2nnc3n2CCCCC3)cc1, which inhibition is on record?
Answer: The inhibition was -6.88%.

Question: For CCOC(=O)c1cc2c(=O)n3ccccc3nc2n(CC(C)C)c1=NC(=O)C(C)Oc1ccccc1 (stereo not given), which inhibition is on record?
Answer: Its inhibition is -20.1%.

Question: How did the inhibition turn out when CCOc1ccc(NC(=O)CCS(=O)(=O)c2cc3c4c(c2)CCN4C(=O)CC3)cc1 was run?
Answer: The inhibition was 8.47%.

Question: How did the inhibition turn out when CCc1ccccc1NC(=O)CCc1c(C)nc2cc(-c3ccccc3)nn2c1C was run?
Answer: The inhibition was 12.7%.

Question: For COc1ccc(-c2nsc(NC(=O)c3ccccc3Br)n2)cc1, which inhibition is on record?
Answer: Its inhibition is -22.7%.

Question: COc1cc(NC(=O)C2CCCN(S(=O)(=O)c3cn(C)cn3)C2)cc(OC)c1 (stereo not given) was tested. Which inhibition did it give?
Answer: Its inhibition is 15.9%.

Question: Which inhibition does the source give for CC(CN1CCOCC1)OC(=O)c1ccc(C(C)(C)C)cc1 (stereo not given) here?
Answer: Its inhibition is active: 70.8%.

Question: CC(=O)N1CCc2c(sc3c2c(=O)n(CCc2ccccc2)c(=O)n3Cc2ccc(F)cc2)C1 was tested. Which inhibition did it give?
Answer: The inhibition was -6.78%.

Question: Which inhibition does the source give for Cc1c(Cl)cccc1NC(=O)CSc1nc(=O)n(CCN2CCOCC2)c2c1CCC2 here?
Answer: The inhibition was -18.4%.

Question: For Cc1ccccc1NC(=O)Cn1c(=O)n(CCCCCC(=O)NCc2ccc3c(c2)OCO3)c(=O)c2sccc21, which inhibition is on record?
Answer: The inhibition was 1.03%.

Question: CCOc1ccc(NC(=O)c2sc3nc(-c4ccc(OC)cc4)cn3c2C)cc1 was tested. Which inhibition did it give?
Answer: Its inhibition is -12.3%.

Question: Which inhibition does the source give for COc1ccc(-n2ccn(CC(=O)Nc3ccccc3C(F)(F)F)c(=O)c2=O)cc1OC here?
Answer: The inhibition was 20.6%.

Question: Which inhibition does the source give for CCc1ccc(-n2c(CCC(=O)O)ccc2-c2cccs2)cc1 here?
Answer: The inhibition was -10.3%.

Question: O=C(Cn1c(=O)c2cccn2c2ccc(F)cc21)NCc1cccc(Cl)c1 was tested. Which inhibition did it give?
Answer: The inhibition was -19.7%.

Question: CC(C)N(Cc1ccccc1)S(=O)(=O)c1ccc(N2CCCCS2(=O)=O)cc1 was tested. Which inhibition did it give?
Answer: The inhibition was -0.0815%.

Question: With CCOC(=O)C1(Cc2ccccc2C(F)(F)F)CCN(C2CCSC2)CC1 (stereo not given) as the compound, how does the inhibition read?
Answer: The inhibition was active: 49.9%.

Question: For Cc1cc2nn(-c3ccccc3)nc2cc1NC(=O)Cc1ccc(Cl)cc1, which inhibition is on record?
Answer: Its inhibition is -1.79%.

Question: For S=C(NCc1ccc(Cl)cc1)NC1CCN(Cc2ccccc2)CC1, which inhibition is on record?
Answer: The inhibition was active: 70.8%.

Question: Which inhibition does the source give for CN(C)S(=O)(=O)c1ccc(C(=O)N(Cc2cccnc2)c2nc3c(F)cc(F)cc3s2)cc1 here?
Answer: The inhibition was -7.41%.

Question: CCOc1ccc(CCNC(=O)CSCc2nc(-c3cccc(C)c3)oc2C)cc1OCC was tested. Which inhibition did it give?
Answer: Its inhibition is -3.51%.

Question: CN(C)S(=O)(=O)N1CCC(N2CCN(Cc3ccc(F)cc3)C(=O)C2=O)CC1 was tested. Which inhibition did it give?
Answer: The inhibition was -4.11%.

Question: Which inhibition does the source give for CC1CCN(C(=O)Cn2c(=O)n(-c3ccc(Cl)cc3)c(=O)c3c4c(sc32)CCC4)CC1 here?
Answer: Its inhibition is -8.57%.

Question: How did the inhibition turn out when CCOc1ccc2nc(NC(=O)c3nc(SC(C)C)ncc3Cl)sc2c1 was run?
Answer: Its inhibition is -8.37%.

Question: How did the inhibition turn out when CCc1cccc2c(-c3ccccc3)nc(SCC(=O)Nc3ccc(OC)cc3)nc12 was run?
Answer: The inhibition was 22.7%.

Question: O=C(Nc1ccc(F)c(Cl)c1)C1CCCN(S(=O)(=O)c2cccc3nsnc23)C1 (stereo not given) was tested. Which inhibition did it give?
Answer: Its inhibition is -12.9%.

Question: For Nc1nonc1-c1nc2ccccc2n1CC(=O)Nc1ccccc1C(=O)O, which inhibition is on record?
Answer: Its inhibition is 5.15%.

Question: With COc1ccc(NC(=S)N(CCCN2CCOCC2)C(C)c2cc3cccc(OC)c3o2)cc1 (stereo not given) as the compound, how does the inhibition read?
Answer: Its inhibition is active: 35.2%.
